This is one part of the list. The full chains were built here from the parent and the listed change. Values near 0.05 are background.
B1: TEV protease; numbered along this chain (parent)
chain: MGESLFKGPRDYNPISSSICHLTNESDGHTTSLYGIGFGPFIITNKHLFRRNNGTLVVQSLHGVFKVKDTTTLQQHLVDGRDMIIIRMPKDFPPFPQKLKFREPQREERICLVTTNFQTKSMSSMVSDTSCTFPSGDGIFWKHWIQTKDGQCGSPLVSTRDGFIVGIHSASNFTNTNNYFTSVPKNFMELLTNQEAQQWVSGWRLNADSVLWGGHKVFMVKPEEPFQPVKEATQL

Variants of: B1
Assay: raw area under fraction-flipped curve 0-4 h after induction (AUC4h, not background-subtracted), DNA-recorder readout of cleavage of the substrate (dimensionless); higher = more cleavage of the substrate by the protease variant
Conditions: temperature: 34 °C; time window: 0-4 h after rhamnose induction
Procedure: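 In vivo DNA recorder in E. coli TOP10(DE3) ΔrhaA at 34 °C. Each TEVp single-site mutant (parent TEVp 0) is paired with a single-site variant of the 7-mer TEVs (canonical ENLYFQ|S). The substrate sits between flexible linkers in a Bxb1-sfGFP-TEVs-SsrA fusion, so cleavage stabilises Bxb1 and speeds flipping of a recombination array, read by NGS. The value is the raw area under the fraction-flipped curve over 0-4 h after rhamnose induction (AUC4h), with ≥20 reads per time point. It is not background-subtracted; inactive controls average about 0.047.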
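Also: Bxb1 expression induced with 0.2% (w/v) L-rhamnose at OD600 near 0.5, cultures sampled hourly, flipped fraction per protease–substrate barcode pair counted by paired-end Illumina sequencing.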

Variant	area with substrate ENLAFQS	area with substrate ENLDFQS	area with substrate ENLEFQS	area with substrate ENLFFQS	area with substrate ENLHFQS	area with substrate ENLIFQS	area with substrate ENLKFQS	area with substrate ENLLFQS	area with substrate ENLMFQS	area with substrate ENLNFQS	area with substrate ENLPFQS	area with substrate ENLQFQS	area with substrate ENLRFQS	area with substrate ENLSFQS	area with substrate ENLTFQS	area with substrate ENLVFQS	area with substrate ENLWFQS	area with substrate ENLCFQS	area with substrate ENLGFQS
P184M	0.0534	0.0631	0.0603	0.0482	0.0608	0.0565	0.065	0.0627	0.0484	0.0565	0.0461	0.0645	0.0695	0.0706	0.0337	0.0094	0.0364		
Q194T	0.0536	0.0637		0.0712	0.0629	0.0785	0.0632	0.0616	0.0722	0.0656	0.0558		0.0735	0.0678		0.105	0.0701	0.0726	
T192F	0.0557	0.0644	0.0517	0.0864	0.0706	0.0065	0.0733			0.0624	0.0766				0.0523				0.0706
T192A	0.0688	0.0651	0.049		0.0746				0.0651			0.0738	0.0646	0.0696			0.039		0.0762
N186P	0.0597	0.0626	0.0687	0.0691		0.0673	0.0563	0.0637		0.0615				0.0572				0.0411	
N206S	0.0705		0.0403	0.0889	0.0699		0.0786			0.0619	0.0367	0.0735	0.0716	0.0649					0.0702
Q198R	0.0525		0.0636		0.0775	0.0916	0.0856			0.0573	0.0649			0.0367					
Q198W	0.0706	0.055	0.0643	0.0695		0.105	0.0842	0.0638	0.0552	0.0545	0.0584		0.068	0.0744			0.0801	0.0643	
W199L	0.0685	0.0697		0.0595	0.0405	0.0647				0.0656		0.0627	0.0547	0.0486			0.0426		
W199R	0.0765	0.061	0.0435	0.0573	0.0612		0.0445		0.07	0.0783	0.0686		0.0561	0.0845			0.0567	0.0536	
V220D	0.0541	0.056	0.0641	0.127	0.0507	0.0742	0.0771			0.0562	0.0582	0.0695	0.0684	0.0837		0.0698		0.0785	0.0747
V220N	0.0658	0.0469	0.0611	0.083	0.0634		0.102		0.0659	0.0706	0.0405			0.065			0.0772	0.0776	
V229G	0.0687	0.0608	0.0715	0.0834	0.0668	0.0836	0.0997	0.0882		0.0621	0.0682	0.0726	0.0684	0.0552			0.0624	0.0693	0.072
V229M	0.0684	0.0697		0.0682	0.0752		0.0779			0.0703	0.0472		0.0939	0.0578			0.073	0.068	
